Measurements published in US9234216B2, “Variant CBH I polypeptides” (BP Corporation North America Inc., priority 2011, dated 2016).

Key:
[1] = Thermotolerance: residual activity on MUL after 20 minute heat challenge; format: biochemical; conditions: residual activity on MUL at 22 C vs non-challenged sample; for % Residual Activity @ 60° C.: heat challenge 20 minutes at 60 C; for % Residual Activity @ 65° C.: heat challenge 20 minutes at 65 C; for % Residual Activity @ 70° C.: heat challenge 20 minutes at 70 C; for % Residual Activity @ 75° C.: heat challenge 20 minutes at 75 C; for % Residual Activity @ 80° C.: heat challenge 20 minutes at 80 C
Protocol: Samples heat challenged at 22 C, 60 C, 65 C, 70 C, 75 C, and 80 C for 20 minutes. After heat challenge, samples cooled on ice. Residual activity determined on MUL at 22 C.
(§1) Calculations for % residual activity: % Residual Activity=Activity heat challenged sample/Activity non-challenged sample (22 C). All residual activities calculated indepentyl from parent residual activity Melting Temperatures were determined by Differential Scanning calorimetry, using 500-700 μg/mL of degassed sample.

[2] = Melting temperature by Differential Scanning calorimetry; format: physicochemical; conditions: DSC, 500-700 μg/mL degassed sample
Protocol: as §1

| Molecule | % Residual Activity @ 60° C. [1] [%] | % Residual Activity @ 65° C. [1] [%] | % Residual Activity @ 70° C. [1] [%] | % Residual Activity @ 75° C. [1] [%] | % Residual Activity @ 80° C. [1] [%] | Melting Temperature [2] [°C] |
| --- | --- | --- | --- | --- | --- | --- |
| SEQ ID 65, 66: BD29555 CBH I variant: V121T (protein) MSALNSFNMYKSALILGSLLATAGAQQIGTYTAETHPSLSWSTCKSGGSCTTNSGAITLDANWRWVHGVNTSTNCYTGNTWNTAICDTDASCAQDCALDGADYSGTYGITTSGNSLRLNFTTGSNVGSRTYLMADNTHYQIFDLLNQEFTFTVDVSHLPCGLNGALYFVTMDADGGVSKYPNNKAGAQYGVGYCDSQCPRDLKFIAGQANVEGWTPSSNNANTGLGNHGACCAELDIWEANSISEALTPHPCDTPGLSVCTTDACGGTYSSDRYAGTCDPDGCDFNPYRLGVTDFYGSGKTVDTTKPITVVTQFVTDDGTSTGTLSEIRRYYVQNGVVIPQPSSKISGVSGNVINSDFCDAEISTFGETASFSKHGGLAKMGAGMEAGMVLVMSLWDDYSVNMLWLDSTYPTNATGTPGAARGSCPTTSGDPKTVESQSGSSYVTFSDIRVGPFNSTFSGGSSTGGSSTTTASGTTTTKASSTSTSSTSTGTGVAAHWGQCGGQGWTGPTTCASGTTCTVVNPYYSQCL | 83 | 64 | 60 | 63 | 59 | 69.6 |
| SEQ ID 67, 68: BD29555 CBH I variant: G113N (protein) MSALNSFNMYKSALILGSLLATAGAQQIGTYTAETHPSLSWSTCKSGGSCTTNSGAITLDANWRWVHGVNTSTNCYTGNTWNTAICDTDASCAQDCALDGADYSGTYGITTSNNSLRLNFVTGSNVGSRTYLMADNTHYQIFDLLNQEFTFTVDVSHLPCGLNGALYFVTMDADGGVSKYPNNKAGAQYGVGYCDSQCPRDLKFIAGQANVEGWTPSSNNANTGLGNHGACCAELDIWEANSISEALTPHPCDTPGLSVCTTDACGGTYSSDRYAGTCDPDGCDFNPYRLGVTDFYGSGKTVDTTKPITVVTQFVTDDGTSTGTLSEIRRYYVQNGVVIPQPSSKISGVSGNVINSDFCDAEISTFGETASFSKHGGLAKMGAGMEAGMVLVMSLWDDYSVNMLWLDSTYPTNATGTPGAARGSCPTTSGDPKTVESQSGSSYVTFSDIRVGPFNSTFSGGSSTGGSSTTTASGTTTTKASSTSTSSTSTGTGVAAHWGQCGGQGWTGPTTCASGTTCTVVNPYYSQCL | 100 | 87 | 62 | 71 | 69 | 71.6 |
| SEQ ID 69, 70: BD29555 CBH I variant: L116T (protein) MSALNSFNMYKSALILGSLLATAGAQQIGTYTAETHPSLSWSTCKSGGSCTTNSGAITLDANWRWVHGVNTSTNCYTGNTWNTAICDTDASCAQDCALDGADYSGTYGITTSGNSTRLNFVTGSNVGSRTYLMADNTHYQIFDLLNQEFTFTVDVSHLPCGLNGALYFVTMDADGGVSKYPNNKAGAQYGVGYCDSQCPRDLKFIAGQANVEGWTPSSNNANTGLGNHGACCAELDIWEANSISEALTPHPCDTPGLSVCTTDACGGTYSSDRYAGTCDPDGCDFNPYRLGVTDFYGSGKTVDTTKPITVVTQFVTDDGTSTGTLSEIRRYYVQNGVVIPQPSSKISGVSGNVINSDFCDAEISTFGETASFSKHGGLAKMGAGMEAGMVLVMSLWDDYSVNMLWLDSTYPTNATGTPGAARGSCPTTSGDPKTVESQSGSSYVTFSDIRVGPFNSTFSGGSSTGGSSTTTASGTTTTKASSTSTSSTSTGTGVAAHWGQCGGQGWTGPTTCASGTTCTVVNPYYSQCL | 107 | 89 | 72 | 71 | 74 | 71.2 |
| SEQ ID 71, 72: BD29555 CBH I variant: T268V (protein) MSALNSFNMYKSALILGSLLATAGAQQIGTYTAETHPSLSWSTCKSGGSCTTNSGAITLDANWRWVHGVNTSTNCYTGNTWNTAICDTDASCAQDCALDGADYSGTYGITTSGNSLRLNFVTGSNVGSRTYLMADNTHYQIFDLLNQEFTFTVDVSHLPCGLNGALYFVTMDADGGVSKYPNNKAGAQYGVGYCDSQCPRDLKFIAGQANVEGWTPSSNNANTGLGNHGACCAELDIWEANSISEALTPHPCDTPGLSVCTTDACGGVYSSDRYAGTCDPDGCDFNPYRLGVTDFYGSGKTVDTTKPITVVTQFVTDDGTSTGTLSEIRRYYVQNGVVIPQPSSKISGVSGNVINSDFCDAEISTFGETASFSKHGGLAKMGAGMEAGMVLVMSLWDDYSVNMLWLDSTYPTNATGTPGAARGSCPTTSGDPKTVESQSGSSYVTFSDIRVGPFNSTFSGGSSTGGSSTTTASGTTTTKASSTSTSSTSTGTGVAAHWGQCGGQGWTGPTTCASGTTCTVVNPYYSQCL | 92 | 65 | 33 | 44 | 42 | 71.1 |
| SEQ ID 73, 74: BD29555 CBH I variant: T35A, V401A (protein) MSALNSFNMYKSALILGSLLATAGAQQIGTYTAEAHPSLSWSTCKSGGSCTTNSGAITLDANWRWVHGVNTSTNCYTGNTWNTAICDTDASCAQDCALDGADYSGTYGITTSGNSLRLNFVTGSNVGSRTYLMADNTHYQIFDLLNQEFTFTVDVSHLPCGLNGALYFVTMDADGGVSKYPNNKAGAQYGVGYCDSQCPRDLKFIAGQANVEGWTPSSNNANTGLGNHGACCAELDIWEANSISEALTPHPCDTPGLSVCTTDACGGTYSSDRYAGTCDPDGCDFNPYRLGVTDFYGSGKTVDTTKPITVVTQFVTDDGTSTGTLSEIRRYYVQNGVVIPQPSSKISGVSGNVINSDFCDAEISTFGETASFSKHGGLAKMGAGMEAGMVLVMSLWDDYSANMLWLDSTYPTNATGTPGAARGSCPTTSGDPKTVESQSGSSYVTFSDIRVGPFNSTFSGGSSTGGSSTTTASGTTTTKASSTSTSSTSTGTGVAAHWGQCGGQGWTGPTTCASGTTCTVVNPYYSQCL | 100 | 95 | 55 | 57 | 68 | 73.8 |
| SEQ ID 75, 76: BD29555 CBH I variant: V392T (protein) MSALNSFNMYKSALILGSLLATAGAQQIGTYTAETHPSLSWSTCKSGGSCTTNSGAITLDANWRWVHGVNTSTNCYTGNTWNTAICDTDASCAQDCALDGADYSGTYGITTSGNSLRLNFVTGSNVGSRTYLMADNTHYQIFDLLNQEFTFTVDVSHLPCGLNGALYFVTMDADGGVSKYPNNKAGAQYGVGYCDSQCPRDLKFIAGQANVEGWTPSSNNANTGLGNHGACCAELDIWEANSISEALTPHPCDTPGLSVCTTDACGGTYSSDRYAGTCDPDGCDFNPYRLGVTDFYGSGKTVDTTKPITVVTQFVTDDGTSTGTLSEIRRYYVQNGVVIPQPSSKISGVSGNVINSDFCDAEISTFGETASFSKHGGLAKMGAGMEAGMVLTMSLWDDYSVNMLWLDSTYPTNATGTPGAARGSCPTTSGDPKTVESQSGSSYVTFSDIRVGPFNSTFSGGSSTGGSSTTTASGTTTTKASSTSTSSTSTGTGVAAHWGQCGGQGWTGPTTCASGTTCTVVNPYYSQCL | 94 | 70 | 56 | 54 | 59 | 70.7 |
| SEQ ID 77, 78: BD29555 CBH I variant: Y399D (protein) MSALNSFNMYKSALILGSLLATAGAQQIGTYTAETHPSLSWSTCKSGGSCTTNSGAITLDANWRWVHGVNTSTNCYTGNTWNTAICDTDASCAQDCALDGADYSGTYGITTSGNSLRLNFVTGSNVGSRTYLMADNTHYQIFDLLNQEFTFTVDVSHLPCGLNGALYFVTMDADGGVSKYPNNKAGAQYGVGYCDSQCPRDLKFIAGQANVEGWTPSSNNANTGLGNHGACCAELDIWEANSISEALTPHPCDTPGLSVCTTDACGGTYSSDRYAGTCDPDGCDFNPYRLGVTDFYGSGKTVDTTKPITVVTQFVTDDGTSTGTLSEIRRYYVQNGVVIPQPSSKISGVSGNVINSDFCDAEISTFGETASFSKHGGLAKMGAGMEAGMVLVMSLWDDDSVNMLWLDSTYPTNATGTPGAARGSCPTTSGDPKTVESQSGSSYVTFSDIRVGPFNSTFSGGSSTGGSSTTTASGTTTTKASSTSTSSTSTGTGVAAHWGQCGGQGWTGPTTCASGTTCTVVNPYYSQCL | 91 | 43 | 52 | 56 | 58 | 68.7 |
| SEQ ID 79, 80: BD29555 CBH I variant: V401D (protein) MSALNSFNMYKSALILGSLLATAGAQQIGTYTAETHPSLSWSTCKSGGSCTTNSGAITLDANWRWVHGVNTSTNCYTGNTWNTAICDTDASCAQDCALDGADYSGTYGITTSGNSLRLNFVTGSNVGSRTYLMADNTHYQIFDLLNQEFTFTVDVSHLPCGLNGALYFVTMDADGGVSKYPNNKAGAQYGVGYCDSQCPRDLKFIAGQANVEGWTPSSNNANTGLGNHGACCAELDIWEANSISEALTPHPCDTPGLSVCTTDACGGTYSSDRYAGTCDPDGCDFNPYRLGVTDFYGSGKTVDTTKPITVVTQFVTDDGTSTGTLSEIRRYYVQNGVVIPQPSSKISGVSGNVINSDFCDAEISTFGETASFSKHGGLAKMGAGMEAGMVLVMSLWDDYSDNMLWLDSTYPTNATGTPGAARGSCPTTSGDPKTVESQSGSSYVTFSDIRVGPFNSTFSGGSSTGGSSTTTASGTTTTKASSTSTSSTSTGTGVAAHWGQCGGQGWTGPTTCASGTTCTVVNPYYSQCL | 93 | 88 | 60 | 62 | 67 | 73.1 |
